Laboratory results: the supplement of paper PMC5499739
Over roughly 16,000 sequences, “Z-score” has its median near -0.37; the highest 2% begin near 3.2. This is one part of the list.

Tested on: RBM10 RRM1-ZnF (GST-tagged construct)
Test: RNAcompete 7-mer binding Z-score; higher = stronger binding preference
Summary of the method: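 A one-sided Z-score for enrichment, taken across the probes containing each heptamer motif, was assigned to every such motif. The RNA came from a designed pool of 241 399 sequences up to 41 nt (1.5 nmol), bound by 20 pmol of GST-tagged RBM10 constructs in 1 ml Hepes pH 7.8 buffer with glutathione Sepharose beads for 30 min at 4°C. Four 2-min washes at 4°C preceded identification of bound RNA by microarray hybridisation.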

Sequence | RNAcompete 7-mer binding Z-score
CUUUCUU | -0.922
UUUCCCU | -0.821
GUUCUUU | -0.613
GAACCGU | -0.604
UGUAAAG | 0.173
AGACCCG | -1.07
AAUAAAG | 0.0235
UUUGUCG | -0.431
GUAUUCG | -0.136
AACUUCU | -0.811
AACACCU | -0.958
ACUGCUG | -0.675
AGGAUAU | 1.22
AGGGUGC | 2.6
GAUUACU | -0.574
GCUGCUU | -0.396
GAGUAUA | 0.339
CAUCUCC | -0.694
GGUUAUU | 1.04
GCUCCCU | -0.548
CUUAAAC | -0.678
UUUAACU | -0.782
AUCGUGA | -0.132
UUUAUAA | -0.578
GGACCGG | 1.32

Sequence | RNAcompete 7-mer binding Z-score
AGCGUUU | -0.37
CGGCCAG | -0.0122
UUGCAUG | -0.331
GGAGGAA | 2.93
ACUCGGG | 0.667
AUCAGGU | 0.771
UCCAUGU | -0.662
CUGUAAG | -0.363
GGACCUU | -0.438
CAGAUUU | -0.841
ACGUCGA | -0.288
CGAGAUU | -0.347
CUAGGCC | -0.62
AUAGUAA | 0.131
UGGAUCC | 0.202
GGUAGGG | 4.7
GCCCGCC | -0.132
CAGUUCC | -0.766
AUUGCGU | -0.275
GGGCAAG | 2.5
AAUCGAG | 0.0658
CCCUAGU | -0.704
UGGUUGG | 2.53
CACAGAU | -0.428
GCGGCGA | 0.849

Sequence | RNAcompete 7-mer binding Z-score
ACGGGUU | 2.65
GAGAAGG | 4.53
UUGACAC | -0.301
UGCUUCG | -0.652
CACACCG | -0.327
UCGACUU | -0.763
UUAUGCA | -0.529
CUUAACU | -0.782
AGUGCUC | -0.392
UGGUUAA | 1.58
AGAGAAU | 0.277
CAGACAU | -0.418
AAGGUUC | 0.745
GUAAAUA | 0.069
CUGUGCG | -0.0869
CGCCCCA | -0.587
AUCACUG | -0.539
UGUUUGG | 0.917
ACUGAAG | 0.183
CGACUUG | -0.704
ACAAUCA | -0.587
GAGGGAG | 3.2
CCGGAGC | 0.0625
AGUUAGG | 2.17
UGACAGG | 2.13

Sequence | RNAcompete 7-mer binding Z-score
AAUUAUC | -0.717
AUACCGA | -0.678
CUAGGUA | 0.599
UGCAGUU | -0.272
AAGACCG | -0.318
UGUCAGA | -0.457
ACCCGCA | -0.626
AUGCCGA | -0.665
CUGCCAG | -0.613
CGGUCGG | 0.485
GCAACGG | 1.29
AACGGGA | 3.45
AAACGCU | -0.629
CUAAAAA | -0.425
CGACUGC | -0.665
UAUUGAG | 0.0138
CCGCAUC | -0.776
GAUUAGG | 2.54
AAUCAAU | -0.451
CGUGUGC | -0.23
UGGUGAU | 1.2
AAUACCG | -0.763
CCAUGGA | 0.131
CUGAAUU | -0.655
CCUGACG | -0.496

Sequence | RNAcompete 7-mer binding Z-score
GUCAGUG | 0.67
UGUAAUG | 0.0853
GCUCGUC | -0.558
AUUUUCU | -0.727
UGACAGC | -0.282
UUCCUUG | -0.675
AAGAGAG | 1.48
CGUGUGU | -0.0155
CACACUU | -0.802
GUUGGAG | 2.4
CCGCUUC | -0.808
CGACCCG | -0.496
GGCUUGC | -0.324
CACGUCA | -0.259
GGAGCUU | 0.553
ACUGGCG | 0.017
UACACGA | -0.376
UACAAUA | -0.353
GCUAGUA | -0.249
AAUGGCG | 1.11
GUAUAAU | 0.0333
CCAGGUG | 0.829
CAUAUAG | -0.162
AACGGCU | -0.0902
AGUAUAA | -0.181

Sequence | RNAcompete 7-mer binding Z-score
CGAGGGG | 2.86
AAGUGGG | 3.73
ACAUAGU | -0.292
AGUGCAC | 0.056
UAGGCCG | -0.0707
GGUGAAA | 1.97
ACUGACG | -0.126
GAGUCCC | -0.314
ACACGGA | 0.511
GUAGGGG | 4.54
CUAAACC | -0.756
AGGCGAU | 0.371
AAACAAC | -0.353
CCCUCGA | -0.75
UACUCUA | -0.558
UGUAUCU | -0.467
UGAACUG | -0.106
UGAAAAG | 0.381
AGGCUGG | 0.881
CAUACAC | -0.581
CACCCUG | -0.496
AGCCUAU | -0.85
UGUAUGG | 1.39
ACCAUUC | -0.912
UAGCAUC | -0.655

Sequence | RNAcompete 7-mer binding Z-score
UCUUUGC | -0.932
GUCUAGA | -0.233
AGCGGAU | 3.22
CGUCACC | -0.366
GUUGCAG | 0.355
UAAGUGA | 0.4
GAAUUAA | -0.035
CGAUACU | -0.756
CGUCCGC | -0.646
UGGUCCA | -0.292
GGCUGGC | 0.472
UUUAUUC | -0.85
GCGGUUC | -0.353
CUCUGGA | -0.503
UCAACGC | -0.763
GGUCCGG | 0.543
GACCAGG | 0.803
GUACAGU | 0.128
UUUUCUC | -0.707
UGCGUCU | -0.659
AAUGUGU | 0.615
GGAGGCG | 2.45
ACAAAGU | -0.123
AAUAGUC | -0.379
GAAGCUG | 0.283

Sequence | RNAcompete 7-mer binding Z-score
CCGGUGA | -0.00896
AAAAUAC | -0.587
ACGCAAG | 0.0398
AUGGCUU | -0.0512
AUAGCUG | -0.0252
CGACCAU | -0.902
ACCAUGC | -0.792
CCUUUUU | -0.987
ACCACCG | -0.249
UACGAGU | -0.155
UGCUUGA | -0.737
ACUGAAC | -0.48
GCGUUCA | -0.34
CCUUUCA | -0.893
UCCAAGC | -0.698
UCACCGC | -0.711
GUUGGUA | 1.64
GGCCACU | -0.561
UAGUUCC | -0.753
UCUGUGG | 0.329
AAGUACC | -0.493
UCCCAGG | 0.157
CAAUCGG | -0.0187
GCGUUCG | -0.285
GCCUAAA | -0.48

Sequence | RNAcompete 7-mer binding Z-score
ACUUGCC | -0.954
GAGCAUU | -0.353
AGAACGG | 1.53
UGGGAGA | 2.78
CGUAACU | -0.633
ACGGACA | 0.846
AUAACUG | -0.324
CGCGCAU | -0.617
CACGGUU | 0.0625
AGUGAAU | 0.452
GGUCAAC | 0.238
GUUAAAG | 0.511
AGUUCUC | -0.746
UACCAUG | -0.597
GGAUGAA | 2.16
AUGGCUG | 0.657
CGUUAGC | -0.561
AAACGGA | 1.5
CGUAGCU | -0.578
UCAUAUU | -0.714
CAUGGCU | -0.21
GGGUAAC | 2.4
CCAAGAG | -0.301
GGGCACC | 0.904
ACUCGUG | -0.522

Sequence | RNAcompete 7-mer binding Z-score
UGGUUAC | 0.914
GCAUGCC | -0.464
AGCUUAA | -0.574
UUGCGAC | -0.516
CCCUAUA | -0.769
CUACCAC | -0.62
CCAGCUC | -0.85
CGGAGAU | 1.01
UUGAGUA | 0.0138
UGCAGAA | 0.105
CACGUAC | -0.438
GCUGUGG | 1.12
AGUGUAC | 0.14
GUCUACA | -0.477
GCACAAA | -0.519
GGGAAAG | 4.79
ACUAUUA | -0.707
UCCAGGU | 0.0235
ACAUACC | -0.74
AGACCUG | -0.902
CGACCCA | -0.587
UUUUCUA | -0.662
ACUCGGU | -0.555
AGGAGCG | 2.4
AUAGGGG | 3.9

Sequence | RNAcompete 7-mer binding Z-score
CUGAACC | -0.597
CAUAUAA | -0.604
GGGUCCU | 0.563
GUGAGUG | 1.56
CCGUGUC | -0.597
CUUCUAG | -0.746
GCACAAG | 0.14
AGCGCUU | -0.6
UAACUCC | -0.711
AUGAUUA | -0.214
CAUUACA | -0.675
AGUUAUC | -0.522
ACUAAAG | -0.0837
CUCUGGG | 0.4
AAUCUCA | -0.717
GGUCUGC | 0.15
UGCGUAA | -0.243
GAUGCGC | 0.251
AAAGCGU | -0.152
AUUUGAA | -0.526
UACCACA | -0.568
AACCAGA | -0.327
AUGUUAU | -0.288
AGAAACG | 0.163
UCGAAUU | -0.552

Sequence | RNAcompete 7-mer binding Z-score
UAACGUG | 0.108
CGAACCC | -0.659
CGCACUC | -0.506
AUGCAUA | -0.418
GUAACUC | -0.288
AAGAUUA | -0.217
GGCGAGU | 1.13
GACUCUU | -0.831
CUGUAAU | -0.61
AUUCACU | -0.707
UGAGGGA | 4.02
AUCCCUA | -0.789
GCCAACU | -0.535
CACGAUC | -0.568
AGAGUCU | -0.418
UCUCGUU | -0.678
GGUUGCU | 0.54
GACUGGA | 1.36
AGUCUGC | -0.646
AUGAAUU | -0.00896
GAAGGGU | 4.19
ACGUUCU | -0.808
GCCCUGU | -0.399
UUGCAGC | -0.571
CGGGCCC | -0.506

Sequence | RNAcompete 7-mer binding Z-score
UAGCAGG | 1.26
GUAUCUA | -0.37
ACUGCUA | -0.526
GACCUGU | -0.847
GAUGCAG | 1
AAUAUGC | -0.415
GGCAACU | -0.0577
GAUUUUA | -0.691
ACCGUAU | -0.746
GCAAUGG | 1.63
CUAUCGA | -0.675
UGUAGCG | 0.339
AAGAAAG | 1.13
ACCGUCA | -0.707
CGAACUG | -0.431
GCCUUGG | 0.00404
UCCUGGA | -0.441
CGGGCGC | 0.508
GCUACUC | -0.496
GGUGAGU | 1.96
UACUGUU | -0.565
UCAGCUU | -0.737
AUGCGGG | 2.62
CUAAGUA | -0.269
AUUUUAA | -0.756

Sequence | RNAcompete 7-mer binding Z-score
UGAUGCA | 0.0495
GCUCGGG | 0.69
GUAUGUA | 0.625
GGGCGAA | 2.22
CGUUGAU | -0.448
GCUUGCA | -0.587
ACGACUA | -0.496
CACCGUA | -0.623
GCGAUGA | 0.537
GUAUAAC | -0.149
CCAAUAA | -0.766
AAGAGUU | 0.426
UCAAGCA | -0.48
GCGGGCU | 1.1
UUAGUCA | -0.396
GACCUGA | -0.717
UAAUCUU | -0.824
CCAGCAC | -0.526
UAUUGUA | -0.347
UGGGCUC | 1.09
AUCCAAC | -0.792
AAAUAAC | -0.545
UUGUAAG | 0.102
AUGAUGU | 0.339
CUCUUCG | -0.792

Sequence | RNAcompete 7-mer binding Z-score
GGCAGCA | 0.29
AAUAUAC | -0.594
UCCGUAG | -0.327
CCUGCUU | -0.935
GUUCGUU | -0.366
ACCUCCC | -0.578
CCUUCAG | -0.805
GGCCGCG | -0.0382
AUGGCAA | 0.839
GUAGCUU | -0.441
UCUCGCC | -0.75
CGAGACU | -0.438
UCAUUGU | -0.72
GAACCCU | -0.772
UCCUAGA | -0.73
GAGGACC | 0.235
CAUGCGU | -0.568
